# In all, about 33,000 sequences were measured (“E-score (-0.5 to 0.5)”: median about -0.054, highest 2% from about 0.39 on). This is one part of the list.
# Target: Ylr278c (UniProt Q05854)
# Test: PBM E-score (8-mer binding enrichment) (E-score (-0.5 to 0.5)); higher = stronger / more preferred TF binding; most listed sequences are background and not binding sites
# Conditions: protein concentration: 200 nM; construct: GST-DNA-binding domain
# Procedure, shortened: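 The E-score, a modified Wilcoxon-Mann-Whitney statistic, was computed by the Universal PBM Analysis Suite for every ungapped eight-base word pooled with its reverse complement. Scans behind it were normalised with masliner after bound GST-tagged yeast transcription factors were detected with fluorescent anti-GST. The proteins, at about 100-200 nM, had been applied to universal all-10-mer Agilent arrays made double-stranded by primer extension.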
row,Sequence,PBM E-score
1,ATCTGGGC,-0.00438
2,AGACGTTC,-0.0517
3,ATGCGCCA,-0.12
4,ACCTAAAG,-0.176
5,CCAAACCG,0.235
6,GTCAAGAC,-0.133
7,CTTATCGC,0.0669
8,TGGCACCA,-0.213
9,GACCGCAC,0.0959
10,ACGGTTCC,0.0133
11,GCAGTCCA,-0.136
12,ATTGTGGG,-0.101
13,AGCGCGAT,0.0131
14,ACAAAATA,-0.0451
15,CGTGTAGC,-0.203
16,CCGAACAG,0.276
17,ACTCTAAC,-0.068
18,GATGAATC,-0.186
19,AGCCGCCC,0.129
20,CTATACTC,-0.0175
21,CTCGCGGC,0.198
22,AATTCTTG,-0.224
23,AGTCGCAC,-0.0873
24,AGTGAGTG,-0.0486
25,CGATTCCC,0.226

row,Sequence,PBM E-score
1,AACGACGC,-0.164
2,ATCCCTTC,-0.122
3,ACTCTCCA,-0.0794
4,CGCCCAAA,0.0214
5,CAACCCGC,0.149
6,GCCAGTGA,-0.213
7,CGCTGAAC,-0.00595
8,CCATAAAA,0.0557
9,ACAATATG,-0.00452
10,ACATCACC,0.0505
11,AACGCCTG,-0.211
12,CACTTACG,0.0434
13,CTTGAACC,-0.162
14,AATATATT,0.0981
15,TCACAGAA,-0.138
16,GACAGCCA,-0.137
17,CTTTGTGA,-0.13
18,CCTTCTCA,-0.121
19,AGCTTTGA,0.0208
20,CGGAAGTC,0.396
21,ACCCGGCC,0.272
22,AAAGAGTA,-0.175
23,CCTGAAAG,-0.244
24,AGGCAACG,-0.0653
25,GATTGGTA,0.0895

row,Sequence,PBM E-score
1,GACCCCTC,-0.0706
2,GACCACAC,-0.123
3,GCGCGCGC,0.214
4,GGCCCTAC,-0.0104
5,CAGGGTAC,-0.344
6,CAGCCGGC,0.296
7,AACCCGAT,0.29
8,AGAAGGCT,-0.269
9,GGGAGTGA,0.0441
10,CCTGACCC,-0.0167
11,CAGCGCTA,0.00241
12,TACGGTAA,0.031
13,CTAACCAA,-0.0463
14,CCTCGAAG,-0.0957
15,ATAAAGTC,0.108
16,AGGTTATA,-0.194
17,CCGTAGTA,0.0927
18,GGCTTCAA,-0.128
19,ATACTGAT,-0.069
20,GCTGAACA,-0.153
21,CCGAACAC,0.186
22,GTAGTCAA,-0.113
23,AAGTGTTC,0.0566
24,CGGGAACC,0.203
25,AAGTATGA,-0.00555

row,Sequence,PBM E-score
1,TCGTAAGA,-0.0593
2,GTGTAACA,-0.175
3,ATTGCTAC,-0.13
4,AAGAGAAT,-0.0016
5,AGTTAAAA,0.0392
6,GCCCCTAC,-0.00801
7,GGATAGCC,0.203
8,ACAAGGTA,-0.078
9,AATAGCGC,0.0368
10,CTCTGAGC,-0.238
11,AAAGGACC,0.0283
12,GGTCCACA,-0.165
13,AACACTCG,0.0471
14,CTGGCCCC,0.102
15,CTACTGGC,-0.0956
16,CTCCAGCA,-0.256
17,ATGACCAA,-0.136
18,GTCATGAA,-0.0846
19,AATGTGAT,-0.068
20,CTCGTCCA,-0.127
21,AAGATCGA,-0.0816
22,AGGGTGTA,-0.172
23,AGGCTACT,-0.169
24,AGCGCACC,0.142
25,GTCGACCA,-0.0958

row,Sequence,PBM E-score
1,GATTCACC,0.132
2,ACGGTCGC,-0.105
3,AAATGAGG,-0.0578
4,ATGTCGAC,-0.108
5,GCCTCGCC,-0.113
6,GTATATAC,-0.131
7,AAACTCCG,0.496
8,ACCTTTAA,-0.182
9,TCGACGCA,-0.0404
10,CATTAAGC,-0.187
11,CTGTCATC,-0.117
12,GCGGGCTA,0.167
13,GATTACTA,0.105
14,AAACCCCG,0.449
15,ACGAGCAT,-0.291
16,CCGTACTA,0.216
17,CACTAGCG,-0.147
18,CCAGGGTA,-0.143
19,CTTTGGAC,-0.00702
20,CAAGCCTA,-0.232
21,ATTCTCGG,0.277
22,CAAGGTCC,0.11
23,AGCTTTCG,-0.0397
24,GCACAAGA,0.0388
25,TCCCGAGA,0.305

row,Sequence,PBM E-score
1,GTCACCAC,0.0336
2,ACCAACGA,-0.0973
3,ACGTTACG,-0.291
4,TATCCCAA,-0.058
5,ACGACACG,0.0687
6,GTAACCCA,-0.146
7,AGACTTAG,-0.162
8,ACTAAGAA,0.014
9,AGGAACAA,-0.0842
10,TACATTGA,-0.145
11,TATGAGGA,-0.191
12,AGTTCGGC,0.185
13,CCCACTCA,-0.26
14,CCTAGTTA,0.0482
15,CATCGTAG,-0.277
16,ACGCTTAC,-0.126
17,ACGAGTCC,0.0886
18,GGCCATAC,0.0576
19,GGACCAAA,0.187
20,CATATCAC,-0.0993
21,ATTGTAGC,-0.032
22,AGGTATCA,-0.218
23,ATCTATCC,0.179
24,CTGAGGAA,-0.133
25,CTGCTATC,-0.0214

row,Sequence,PBM E-score
1,GGTCTTGA,0.0695
2,AGGGTTAA,-0.316
3,AATTCGGG,0.215
4,AAAGCCAG,-0.222
5,AAAACGCA,0.00568
6,ACATTTGC,0.00986
7,ACAGAATG,-0.164
8,ACAACCCG,0.0591
9,GGCCGCTA,0.141
10,ATAGTATC,0.0193
11,AATGGACC,0.0413
12,AGCAAGTA,-0.21
13,ACCTGATG,-0.177
14,CATGACAA,-0.12
15,GAGAATAC,0.153
16,CCGCATGA,-0.0148
17,CCCCGTCC,0.252
18,AAGCCGCG,0.266
19,CAGCCAGG,-0.302
20,ACGCCATA,-0.254
21,CCTCTAGC,-0.175
22,ATACCCAT,-0.118
23,CTTTGTAC,-0.298
24,AACACGTG,0.0455
25,ACTGCCAG,-0.133

row,Sequence,PBM E-score
1,GGTCTTAA,-0.193
2,CTAGGCCA,-0.0375
3,TCTTGAAA,0.00708
4,TGACTTAA,-0.207
5,ACACAAGC,-0.114
6,ACACTACT,-0.0995
7,CGAATCCC,0.262
8,AAATTCAA,0.0115
9,CATCCTAA,-0.093
10,GGCCAAAA,-0.0641
11,AGATGCGG,0.211
12,CATAACAC,-0.168
13,CACCATAG,-0.261
14,CCAACCTA,-0.0214
15,CATGCAAA,-0.0172
16,CATCTCAG,-0.161
17,ACGACACC,0.0263
18,CAGCTGCG,0.0853
19,ACCGTAGA,0.022
20,AACCACCG,0.214
21,ACGCGGAA,0.366
22,CTATCGAA,-0.109
23,GTACTTCA,0.106
24,AGCACTCA,-0.0941
25,GACATTTA,-0.0358

row,Sequence,PBM E-score
1,CATCATCA,-0.105
2,AAGGGCGG,0.238
3,CGTACACG,-0.0955
4,CGTTGGAC,-0.198
5,AAAGAAGA,-0.0104
6,ACGGTGGC,-0.081
7,CCGGTATC,0.32
8,AACGCAGG,-0.131
9,ACCCGGTG,0.277
10,CAAATGGC,0.0232
11,ACGATGAA,-0.0538
12,CGACGAAA,-0.00274
13,CGGTCTGC,0.117
14,AATTCCAT,0.0569
15,ATTGTCCC,0.0603
16,GATAACCC,0.0616
17,GACTTGGA,0.0724
18,AACTTTAG,-0.125
19,AATACACG,0.0135

# Source: the supplement of paper PMC3334620
